These results are taken from the supplement of paper PMC4604168 (melanoma cell lines).

The other results are listed elsewhere or left out. Most values come without repeats; read them as rough.
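Note: cell number obtained by counting DAPI-stained nuclei in high-throughput microscope images with image analysis software, screen run in 1,536-well plates.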

The subject of this assay is MZ2-MEL. As to the kind of experiment: cell count relative to DMSO control; melanoma cells; higher = more viable cells. As to conditions: library dose: low library concentration; 72 h.
Consider `O=C(CCCCCCC(=O)Nc1ccccc1)NO` [vorinostat] + Cn1cncc1[C@@](N)(c1ccc(Cl)cc1)c1ccc2c(c1)c(-c1cccc(Cl)c1)cc(=O)n2C [tipifarnib] (first compound 0.08 µM, partner dose 0.01 µM), for which the cell count came to 99.1%.
The molecule `O=C(CCCCCCC(=O)Nc1ccccc1)NO` [vorinostat] + O=C(Nc1cccc(Cl)c1)Nc1ncc(CCNc2ncnc3ccsc23)s1 [SNS314] (first compound 0.08 µM, partner dose 0.0008 µM) had a cell count of 99.7%.
`Nc1cccc2c1CN(C1CCC(=O)NC1=O)C2=O` (centres undefined) [lenalidomide] + Cn1cncc1[C@@](N)(c1ccc(Cl)cc1)c1ccc2c(c1)c(-c1cccc(Cl)c1)cc(=O)n2C [tipifarnib] (first compound 1 µM, partner dose 0.01 µM) returned a cell count of 103%.
As for `COCC[n+]1c2c(n(Cc3cnccn3)c1C)C(=O)c1ccccc1C2=O` + CC(C)(C)c1cnc(CSc2cnc(NC(=O)C3CCNCC3)s2)o1 [SNS-032] (first compound 0.0004 µM, partner dose 0.01 µM), the cell count turned out to be 46.8%.
Turning to `OCc1c[nH]c2ccccc12` [Indole-3-carbinol] + COC(=O)c1sccc1S(=O)(=O)Nc1ccc(Nc2ccccc2)cc1OC [GSK0660] (first compound 0.8 µM, partner dose 1 µM), the cell count was determined as 111%.
Take `COCC[n+]1c2c(n(Cc3cnccn3)c1C)C(=O)c1ccccc1C2=O` + CN(NC(=O)CC(=O)NN(C)C(=S)c1ccccc1)C(=S)c1ccccc1 [STA4783] (first compound 0.0004 µM, partner dose 0.006 µM): the cell count is 45%.
Molecule `O=C(CCCCCCC(=O)Nc1ccccc1)NO` [vorinostat] + CO[C@@H]1[C@H](N(C)C(=O)c2ccccc2)C[C@H]2O[C@]1(C)n1c3ccccc3c3c4c(c5c6ccccc6n2c5c31)C(=O)NC4 [Midostaurin] (first compound 0.08 µM, partner dose 0.08 µM) gave a cell count of 92.2%.
On to `OCc1c[nH]c2ccccc12` [Indole-3-carbinol] + O=S(=O)(c1ccccc1)N(CC(F)(F)F)c1ccc(C(O)(C(F)(F)F)C(F)(F)F)cc1 [T0901317] (first compound 0.8 µM, partner dose 1.4 µM), for which the cell count is 101%.
Then `C#Cc1cccc(Nc2ncnc3cc(OCCOC)c(OCCOC)cc23)c1` [erlotinib] + CC(C)(C)c1cnc(CSc2cnc(NC(=O)C3CCNCC3)s2)o1 [SNS-032] (first compound 0.8 µM, partner dose 0.01 µM), with 104%; and `OCc1c[nH]c2ccccc12` [Indole-3-carbinol] + Oc1cc(-c2nc(-c3ccccc3)[nH]c2-c2ccncc2)ccc1Cl [L779450] (first compound 0.8 µM, partner dose 0.2 µM), with 71.4%.
Regarding `Clc1ccc(Nc2nnc(Cc3ccncc3)c3ccccc23)cc1` [vatalanib] + O=C1NC(=O)/C(=C/c2ccc(-c3ccc(F)cc3O)o2)S1 [AS252424] (first compound 2 µM, partner dose 1 µM), the cell count is 88.2%.
Then `C#Cc1cccc(Nc2ncnc3cc(OCCOC)c(OCCOC)cc23)c1` [erlotinib] + CN(C)S(=O)(=O)c1ccc2c(c1)/C(=C/c1cc3c([nH]1)CCCC3)C(=O)N2 [SU6656] (first compound 0.8 µM, partner dose 0.4 µM), with 96.2%.
`Clc1ccc(Nc2nnc(Cc3ccncc3)c3ccccc23)cc1` [vatalanib] + O=C(Nc1cccc(Cl)c1)Nc1ncc(CCNc2ncnc3ccsc23)s1 [SNS314] (first compound 2 µM, partner dose 0.0008 µM) displayed a cell count of 92.1%.
Regarding `C#Cc1cccc(Nc2ncnc3cc(OCCOC)c(OCCOC)cc23)c1` [erlotinib] + Cc1ccc(NC(=O)c2cccc(N(C)C)c2)cc1NC(=O)c1ccc(O)cc1 [ZM336372] (first compound 0.8 µM, partner dose 2 µM), the cell count is 74.6%.
Consider `Clc1ccc(Nc2nnc(Cc3ccncc3)c3ccccc23)cc1` [vatalanib] + CC1(C)NC(=O)N(c2ccc([N+](=O)[O-])c(C(F)(F)F)c2)C1=O [nilutamide] (first compound 2 µM, partner dose 1 µM), for which the cell count turned out to be 97.8%.
Then `Clc1ccc(Nc2nnc(Cc3ccncc3)c3ccccc23)cc1` [vatalanib] + Cc1ccc(NC(=O)c2cccc(N(C)C)c2)cc1NC(=O)c1ccc(O)cc1 [ZM336372] (first compound 2 µM, partner dose 2 µM), with 76.2%; and `C#Cc1cccc(Nc2ncnc3cc(OCCOC)c(OCCOC)cc23)c1` [erlotinib] + COc1cc2c(Oc3ccc4[nH]c(C)cc4c3F)ncnc2cc1OCCCN1CCCC1 [cediranib] (first compound 0.8 µM, partner dose 0.4 µM), with 103%; and `Clc1ccc(Nc2nnc(Cc3ccncc3)c3ccccc23)cc1` [vatalanib] + CCc1ccc(CCOc2ccc(CC3SC(=O)NC3=O)cc2)nc1 [pioglitazone] (first compound 2 µM, partner dose 2 µM), with 91.9%.
Regarding `O=C(CCCCCCC(=O)Nc1ccccc1)NO` [vorinostat] + COc1cc2c(Oc3ccc4[nH]c(C)cc4c3F)ncnc2cc1OCCCN1CCCC1 [cediranib] (first compound 0.08 µM, partner dose 0.4 µM), the cell count worked out at 102%.
Regarding `Nc1cccc2c1CN(C1CCC(=O)NC1=O)C2=O` (centres undefined) [lenalidomide] + O=C(Nc1cccc(Cl)c1)Nc1ncc(CCNc2ncnc3ccsc23)s1 [SNS314] (first compound 1 µM, partner dose 0.0008 µM), the cell count turned out to be 101%.
On to `Nc1cccc2c1CN(C1CCC(=O)NC1=O)C2=O` (centres undefined) [lenalidomide] + O=C(CCCCCCC(=O)Nc1ccccc1)NO [vorinostat] (first compound 1 µM, partner dose 0.08 µM), for which the cell count is 107%.
In turn, `COCC[n+]1c2c(n(Cc3cnccn3)c1C)C(=O)c1ccccc1C2=O` + COc1cc(Nc2ncc(F)c(Nc3ccc4c(n3)NC(=O)C(C)(C)O4)n2)cc(OC)c1OC [Tamatinib] (first compound 0.0004 µM, partner dose 0.4 µM) registered a cell count of 44.9%.
The value for `O=C(CCCCCCC(=O)Nc1ccccc1)NO` [vorinostat] + O=C(O)c1ccc(-c2c[nH]c3ncc(-c4ccccc4)cc23)cc1C1CCCC1 [GSK650394] (first compound 0.08 µM, partner dose 0.16 µM) was 97.8%; that for `Clc1ccc(Nc2nnc(Cc3ccncc3)c3ccccc23)cc1` [vatalanib] + O=C(O)C(=O)Nc1sc2c(c1C(=O)O)CCNC2 [TCS401] (first compound 2 µM, partner dose 1.66667 µM) was 100%.
Then `Clc1ccc(Nc2nnc(Cc3ccncc3)c3ccccc23)cc1` [vatalanib] + COc1ccc(COc2ccc(Cc3cnc(N)nc3N)cc2OC)cc1 [GW2580] (first compound 2 µM, partner dose 1 µM), with 96.4%; and `Clc1ccc(Nc2nnc(Cc3ccncc3)c3ccccc23)cc1` [vatalanib] + Oc1cc(-c2nc(-c3ccccc3)[nH]c2-c2ccncc2)ccc1Cl [L779450] (first compound 2 µM, partner dose 0.2 µM), with 82.9%; and `Clc1ccc(Nc2nnc(Cc3ccncc3)c3ccccc23)cc1` [vatalanib] + O=C(O)c1ccc(-c2c[nH]c3ncc(-c4ccccc4)cc23)cc1C1CCCC1 [GSK650394] (first compound 2 µM, partner dose 0.16 µM), with 99.5%.
Consider `OCc1c[nH]c2ccccc12` [Indole-3-carbinol] + Cc1cc([N+](=O)[O-])ccc1NS(=O)(=O)c1cc(Cl)ccc1Cl [FH535] (first compound 0.8 µM, partner dose 1 µM), for which the cell count was 90.1%.
The value for `Clc1ccc(Nc2nnc(Cc3ccncc3)c3ccccc23)cc1` [vatalanib] + CC(C)(C)c1cnc(CSc2cnc(NC(=O)C3CCNCC3)s2)o1 [SNS-032] (first compound 2 µM, partner dose 0.01 µM) was 90.8%.
For `O=C(CCCCCCC(=O)Nc1ccccc1)NO` [vorinostat] + C[C@@H]1CCN(C(=O)CC#N)C[C@@H]1N(C)c1ncnc2[nH]ccc12 [CP690550] (first compound 0.08 µM, partner dose 1 µM), the cell count worked out at 99.2%.
`Cn1c(Nc2ccc(C(F)(F)F)cc2)nc2cc(Oc3ccnc(-c4ncc(C(F)(F)F)[nH]4)c3)ccc21` + O=C(O)c1ccc(-c2c[nH]c3ncc(-c4ccccc4)cc23)cc1C1CCCC1 [GSK650394] (first compound 0.08 µM, partner dose 0.16 µM) returned a cell count of 71.9%.
`OCc1c[nH]c2ccccc12` [Indole-3-carbinol] + CCN(CC)CCCCNc1ncc2cc(-c3cc(OC)cc(OC)c3)c(NC(=O)NC(C)(C)C)nc2n1 [PD173074] (first compound 0.8 µM, partner dose 0.1 µM) returned a cell count of 95.8%.
Then `Clc1ccc(Nc2nnc(Cc3ccncc3)c3ccccc23)cc1` [vatalanib] + O=C(Nc1ccccc1)c1cc([N+](=O)[O-])ccc1Cl [GW9662] (first compound 2 µM, partner dose 2 µM), with 93.1%; and `Cn1c(Nc2ccc(C(F)(F)F)cc2)nc2cc(Oc3ccnc(-c4ncc(C(F)(F)F)[nH]4)c3)ccc21` + C=CCn1c(=O)c2cnc(Nc3ccc(N4CCN(C)CC4)cc3)nc2n1-c1cccc(C(C)(C)O)n1 [MK1775] (first compound 0.08 µM, partner dose 0.02 µM), with 75.3%.
